# Experimental data from PubChem BioAssay (NCATS).
# The shares of active, inactive and inconclusive entries below differ from those in the screen. A potency beside an inconclusive call is a rough fit, not a confirmed value. The source made the active and inactive calls. Calls follow the shape of the dose curve; as a rule, active = well fitted cell-killing curve with a large enough effect; inconclusive = small, poorly fitted or top-dose-only effect, or effect the other way; inactive = flat fitted curve, though single readings scatter.
# Key:
# Assay in all cases: Primary qHTS to identify gynecologic anti-cancer compounds using libraries of approved drugs and bioactive compounds (AID 1345084); also: nearly all actives have a fitted effect of over 55% in size
# CAOV3 = details: Gynecologic cancer cell panel viability, ATPlite luminescence, 48 h; series mostly up to 57.5 µM
# Method in brief: (§1)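 Luminescence from the ATPlite ATP-monitoring reagent indicates viable cell number; lower signal means cytotoxicity. Cells received compound 16 h after seeding and were exposed for 48 h across five concentrations.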
# CASKI = details: Gynecologic cancer cell panel viability, ATPlite luminescence, 48 h; series mostly up to 57.5 µM
# Method in brief: as §1
# HeLa = details: Gynecologic cancer cell panel viability, ATPlite luminescence, 48 h; series mostly up to 57.5 µM
# Method in brief: as §1
# Hek293T = details: Gynecologic cancer cell panel viability, ATPlite luminescence, 48 h, control line for the selectivity index; series mostly up to 57.5 µM
# Method in brief: as §1
# JEG-3 = details: Gynecologic cancer cell panel viability, ATPlite luminescence, 48 h; series mostly up to 57.5 µM
# Method in brief: as §1
# OV90 = details: Gynecologic cancer cell panel viability, ATPlite luminescence, 48 h; series mostly up to 57.5 µM
# Method in brief: as §1
# Es-2 = details: Gynecologic cancer cell panel viability, ATPlite luminescence, 48 h; series mostly up to 57.5 µM
# Method in brief: as §1
# Potency is read from the fitted curve at half-maximal effect; tags tell the direction and shape of the fitted curve.
structure (smiles),measurement,setting,value
CO[C@H]1C[C@H](O[C@H]2CC[C@]3(C=O)[C@H]4CC[C@]5(C)[C@@H](C6=CC(=O)OC6)CC[C@]5(O)[C@@H]4CC[C@]3(O)C2)O[C@H](C)[C@H]1O,Potency,CAOV3,active: 0.199 µM
same,Potency,CASKI,"inconclusive: 0.794 µM [cytotoxic, full curve, poor fit]"
same,Potency,HeLa,active: 0.141 µM
same,Potency,Hek293T,active: 0.224 µM
same,Potency,JEG-3,"inconclusive: 0.282 µM [cytotoxic, full curve, poor fit]"
same,Potency,OV90,active: 0.891 µM
Clc1ccccc1N1CCNCC1,Potency,CAOV3,inactive
same,Potency,CASKI,inactive
same,Potency,Hek293T,inactive
CN1C[C@@H]2CN(c3ccc(-c4ccccc4)nn3)C[C@@H]2C1,Potency,CAOV3,inactive
same,Potency,CASKI,"inconclusive: 2.82 µM [cytotoxic, partial curve, poor fit]"
same,Potency,Hek293T,inactive
C[C@]12CCC(=O)C(O)=C1CC[C@@H]1[C@@H]2CC[C@]2(C)C(=O)CC[C@@H]12,Potency,CAOV3,inactive
CC[C@H](O)C(C[C@H](C)N(C)C)(c1ccccc1)c1ccccc1,Potency,CAOV3,"inconclusive: 44.7 µM [cytotoxic, single point]"
same,Potency,CASKI,"inconclusive: 100 µM [cytotoxic, single point]"
same,Potency,OV90,"inconclusive: 39.8 µM [cytotoxic, partial curve, poor fit]"
C=C(C)[C@H]1O[C@H]2CC[C@@]3(C)[C@@](O)(CC[C@H]4[C@@H]5OC(C)(C)[C@H]6C[C@@H]7C(=C)Cc8c(Cl)cc9[nH]c(c5c9c8[C@@]76O)[C@@]43C)[C@]23O[C@@H]3[C@H]1O,Potency,CAOV3,inactive
N#CC(OC1OC(COC2OC(CO)C(O)C(O)C2O)C(O)C(O)C1O)c1ccccc1 (stereo unspecified),Potency,CAOV3,inactive
same,Potency,HeLa,"inconclusive: 17.8 µM [cytotoxic, single point]"
C[C@H]1C/C=C/[C@H]2[C@@H]3O[C@]3(C)[C@@H](C)[C@H]3[C@H](Cc4ccccc4)NC(=O)[C@]32OC(=O)O/C=C/[C@@](C)(O)C1=O,Potency,CAOV3,"inconclusive: 0.794 µM [cytotoxic, full curve, poor fit]"
same,Potency,HeLa,"inconclusive: 0.355 µM [cytotoxic, full curve, poor fit]"
same,Potency,Hek293T,"inconclusive: 0.355 µM [cytotoxic, full curve]"
same,Potency,JEG-3,"inconclusive: 5.01 µM [cytotoxic, partial curve]"
CC(C)(O)/C=C/C(=O)[C@](C)(O)[C@H]1[C@H](O)C[C@@]2(C)[C@@H]3CC=C4[C@@H](C[C@H](O)C(=O)C4(C)C)[C@]3(C)C(=O)C[C@]12C,Potency,CAOV3,active: 0.398 µM
same,Potency,CASKI,active: 1.41 µM
same,Potency,Es-2,"inconclusive: 4.47 µM [cytotoxic, partial curve]"
same,Potency,HeLa,active: 2.51 µM
same,Potency,Hek293T,"inconclusive: 0.708 µM [cytotoxic, full curve, poor fit]"
same,Potency,JEG-3,"inconclusive: 8.91 µM [rising, single point]"
same,Potency,OV90,active: 1.26 µM
C=C1[C@@H](C)[C@H]2[C@H](Cc3ccccc3)NC(=O)[C@]23[C@H](OC(C)=O)/C=C/[C@](C)(O)C(=O)[C@@H](C)C/C=C/[C@H]3[C@@H]1O,Potency,CAOV3,"inconclusive: 25.1 µM [cytotoxic, partial curve, poor fit]"
same,Potency,Es-2,"inconclusive: 0.631 µM [cytotoxic, full curve, poor fit]"
same,Potency,OV90,active: 1.26 µM
COc1ccc(C(CN(C)C)C2(O)CCCCC2)cc1 (stereo unspecified),Potency,CAOV3,inactive
CC1(C)CC/C(=C/c2ccc(Cl)cc2)C1(O)Cn1cncn1 (stereo unspecified),Potency,CAOV3,inactive
Cc1sc2c(c1C)C(c1ccc(Cl)cc1)=NC(CC(=O)OC(C)(C)C)c1nnc(C)n1-2 (stereo unspecified),Potency,CAOV3,"inconclusive: 39.8 µM [cytotoxic, single point]"
same,Potency,CASKI,"inconclusive: 15.8 µM [cytotoxic, partial curve, poor fit]"
same,Potency,Es-2,"inconclusive: 4.47 µM [cytotoxic, partial curve]"
same,Potency,HeLa,"inconclusive: 1.78 µM [cytotoxic, full curve]"
C[C@@H]1Cc2c(Cl)cc(C(=O)N[C@@H](Cc3ccccc3)C(=O)O)c(O)c2C(=O)O1,Potency,CAOV3,inactive
same,Potency,Es-2,"inconclusive: 28.2 µM [cytotoxic, single point]"
same,Potency,Hek293T,"inconclusive: 12.6 µM [cytotoxic, single point]"
C/C=C(/C)C1C=CC2CC(C)CC(C)C2C1/C(O)=C1\C(=O)NC(CC(C)(O)C(=O)O)C1=O (stereo unspecified),Potency,CAOV3,"inconclusive: 3.98 µM [cytotoxic, single point]"
CCOCCOC(C)=O,Potency,CAOV3,"inconclusive: 14.1 µM [rising, partial curve]"
same,Potency,CASKI,inactive
same,Potency,Hek293T,"inconclusive: 10 µM [rising, full curve, poor fit]"
